Experimental data taken from the supplement of paper PMC8728848.
The list shows a part of the results.

Tests used:
Assay in all cases: glycan array binding signal (z-score within array); higher = stronger binding
Settings in all cases: glycan notation: IUPAC condensed, linker removed
[1] = biological target: Gal(b1-4)GlcNAc(b1-3)Gal(b1-4)GlcNAc(b1-3)[Gal(b1-4)GlcNAc(b1-3)Gal(b1-4)GlcNAc(b1-6)]GalNAc
Outline: (§1)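 The binding signal is a Z-score computed within each array. Data were drawn from 3228 arrays in the Consortium for Functional Glycomics database, restricted to those with a known protein sequence. Scores were averaged over arrays of the same protein sequence at different concentrations or buffers, and over linkers, and negative values can be taken as non-binding.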

[2] = biological target: Gal(b1-4)GlcNAc(b1-3)Gal(b1-4)GlcNAc(b1-6)[Gal(b1-3)]GalNAc
Outline: as §1

[3] = biological target: Gal(b1-4)GlcNAc(b1-3)Gal(b1-4)[Fuc(a1-3)]GlcNAc(b1-3)Gal(b1-4)[Fuc(a1-3)]GlcNAc
Outline: as §1

[4] = biological target: Gal(b1-4)GlcNAc(b1-3)GalNAc
Outline: as §1

[5] = biological target: Gal(b1-4)GlcNAc(b1-3)[Fuc(a1-3)GlcNAc(b1-6)]Gal(b1-4)Glc
Outline: as §1

[6] = biological target: Gal(b1-4)GlcNAc(b1-3)[Gal(b1-4)GlcNAc(b1-6)]Gal(b1-4)GlcNAc
Outline: as §1

[7] = biological target: Gal(b1-4)GlcNAc(b1-3)[GlcNAc(b1-6)]Gal(b1-4)GlcNAc
Outline: as §1

[8] = biological target: Gal(b1-4)GlcNAc(b1-6)Gal(b1-4)GlcNAc
Outline: as §1

[9] = biological target: Gal(b1-4)GlcNAc(b1-6)GalNAc
Outline: as §1

[10] = biological target: Gal(b1-4)GlcNAc(b1-6)[Gal(b1-3)]GalNAc
Outline: as §1

[11] = biological target: Gal(b1-4)GlcNAc(b1-6)[Gal(b1-4)GlcNAc(b1-3)]GalNAc
Outline: as §1

Gal(b1-4)GlcNAc6P = biological target: Gal(b1-4)GlcNAc6P
Outline: as §1

Gal(b1-6)Gal = biological target: Gal(b1-6)Gal
Outline: as §1

Gal3S(b1-3)GalNAc = biological target: Gal3S(b1-3)GalNAc
Outline: as §1

Gal3S(b1-3)GlcNAc = biological target: Gal3S(b1-3)GlcNAc
Outline: as §1

[12] = biological target: Gal3S(b1-3)[Fuc(a1-4)]GlcNAc
Outline: as §1

Gal3S(b1-4)Glc = biological target: Gal3S(b1-4)Glc
Outline: as §1

Gal3S(b1-4)Glc6S = biological target: Gal3S(b1-4)Glc6S
Outline: as §1

Gal3S(b1-4)GlcNAc = biological target: Gal3S(b1-4)GlcNAc
Outline: as §1

[13] = biological target: Gal3S(b1-4)[Fuc(a1-3)]Glc6S
Outline: as §1

[14] = biological target: Gal3S(b1-4)[Fuc(a1-3)]GlcNAc
Outline: as §1

[15] = biological target: Gal3S(b1-4)[Fuc(a1-3)]GlcNAc6S
Outline: as §1

Gal3S4S(b1-4)GlcNAc = biological target: Gal3S4S(b1-4)GlcNAc
Outline: as §1

Gal3S6S(b1-4)GlcNAc = biological target: Gal3S6S(b1-4)GlcNAc
Outline: as §1

Gal3S6S(b1-4)GlcNAc6S = biological target: Gal3S6S(b1-4)GlcNAc6S
Outline: as §1

Gal4S(b1-4)GlcNAc = biological target: Gal4S(b1-4)GlcNAc
Outline: as §1

Gal4S6S(b1-4)GlcNAc = biological target: Gal4S6S(b1-4)GlcNAc
Outline: as §1

Gal6P(b1-4)GlcNAc = biological target: Gal6P(b1-4)GlcNAc
Outline: as §1

Gal6S(b1-3)GlcNAc = biological target: Gal6S(b1-3)GlcNAc
Outline: as §1

Gal6S(b1-3)GlcNAc6S = biological target: Gal6S(b1-3)GlcNAc6S
Outline: as §1

Gal6S(b1-4)Glc = biological target: Gal6S(b1-4)Glc
Outline: as §1

Gal6S(b1-4)Glc6S = biological target: Gal6S(b1-4)Glc6S
Outline: as §1

Gal6S(b1-4)GlcNAc = biological target: Gal6S(b1-4)GlcNAc
Outline: as §1

Gal6S(b1-4)GlcNAc6S = biological target: Gal6S(b1-4)GlcNAc6S
Outline: as §1

GalNAc(a1-3)Gal = biological target: GalNAc(a1-3)Gal
Outline: as §1

GalNAc(a1-3)GalNAc = biological target: GalNAc(a1-3)GalNAc
Outline: as §1

[16] = biological target: GalNAc(a1-3)GalNAc(b1-3)Gal(a1-4)Gal(b1-4)Glc
Outline: as §1

[17] = biological target: GalNAc(a1-3)GalNAc(b1-3)Gal(a1-4)Gal(b1-4)GlcNAc
Outline: as §1

GalNAc(b1-3)Gal = biological target: GalNAc(b1-3)Gal
Outline: as §1

[18] = biological target: GalNAc(b1-3)Gal(a1-4)Gal(b1-4)GlcNAc
Outline: as §1

[19] = biological target: GalNAc(b1-3)Gal(a1-4)Gal(b1-4)GlcNAc(b1-3)Gal(b1-4)Glc
Outline: as §1

[20] = biological target: GalNAc(b1-3)Gal(a1-6)Gal(b1-4)Glc
Outline: as §1

GalNAc(b1-3)GalNAc = biological target: GalNAc(b1-3)GalNAc
Outline: as §1

GalNAc(b1-3)GlcNAc = biological target: GalNAc(b1-3)GlcNAc
Outline: as §1

GalNAc(b1-4)Gal(b1-4)Glc = biological target: GalNAc(b1-4)Gal(b1-4)Glc
Outline: as §1

Measured: glycan array binding signal (z-score)

B1: PFL (Pseudomonas fluorescens) (protein)
chain: MSKYAVANQWGGSSAPWHPGGTWVLGARDNQNVVAIEIKSGDGGKSFTGTMTYAGEGPIGFKAQRTGQNQYNVENQWGGNDAPWHPGGKWVIGGRDNQNVIALSVTSSDGGKNLSGTNTYANEGPIGFRGQIE
-0.108: [1] | [11] | [17]
-0.119: GalNAc(b1-3)Gal
-0.113: [7] | [10] | Gal6S(b1-4)Glc | GalNAc(b1-4)Gal(b1-4)Glc
-0.117: Gal6S(b1-4)GlcNAc6S | [19]
-0.118: Gal4S6S(b1-4)GlcNAc
-0.11: [20]
-0.112: [6] | [9] | Gal3S(b1-4)Glc | [15]
-0.111: Gal3S(b1-4)GlcNAc
-0.102: [13] | Gal6S(b1-3)GlcNAc6S
-0.115: Gal3S4S(b1-4)GlcNAc | Gal4S(b1-4)GlcNAc | Gal6P(b1-4)GlcNAc | Gal6S(b1-3)GlcNAc | Gal6S(b1-4)GlcNAc | [18]
-0.105: [2] | Gal3S6S(b1-4)GlcNAc
-0.107: Gal(b1-6)Gal | Gal6S(b1-4)Glc6S
-0.114: [3] | [8] | Gal(b1-4)GlcNAc6P | Gal3S(b1-3)GlcNAc | Gal3S(b1-4)Glc6S | GalNAc(b1-3)GalNAc
-0.116: [4] | [5] | Gal3S(b1-3)GalNAc | [12] | [14] | Gal3S6S(b1-4)GlcNAc6S | GalNAc(a1-3)Gal | GalNAc(a1-3)GalNAc | [16] | GalNAc(b1-3)GlcNAc
